# Experimental data: article PMC12040169 (PLOS Biology, 2025)
# This is one part of the list.
# Tested on: T1, C. trachomatis L2/434/Bu expressing GFP (CTL2-GFP)
# T1 construct: L2/434/Bu GFP intracellular growth in HeLa cells
# Parameters: species or system HeLa; C. trachomatis total inclusion area by high-content imaging, normalised to DMSO
# Details: total inclusion area; 28.5 h, 10 µM; inhibitor
# In short: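 Host cell viability was gauged from Hoechst-stained nuclei counts, while chlamydial growth was taken from total inclusion area and inclusion number per well. Cells were fixed and imaged by high-content microscopy once bulk GFP and resorufin fluorescence had been measured.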
row,Compound,% of control remaining
1,Cc1nc(CN2C(=O)CC3(C2=O)C(=O)N(CCCCOc2ccccc2)c2ccccc23)cs1 (stereo not drawn) [CBK076103],115.789
2,O=C(c1ccco1)N1CCN(c2cncc(-c3cc4ccccc4o3)n2)CC1 [CBK066044],85.9859
3,CCOc1cc(/C=C/c2ccc3cccc(O)c3n2)cc(Br)c1O [CBK264451],108.362
4,c1ccc(Oc2cccc(CN3CCN(c4ccccn4)CC3)c2)cc1 [CBK261523],97.8262
5,CN1CCCc2ccc(S(=O)(=O)NCCc3cn4ccccc4n3)cc21 [CBK306170],64.8009
6,Cc1cc(C)nc(SCC(=O)N/N=C2/C(=O)Nc3ccccc32)n1 [CBK262883],80.2526
7,N#Cc1c(C(F)(F)F)cc(-c2ccncc2)nc1SCCN1CCCCCC1 [CBK267451],101.326
8,Cc1cc(C(=O)Cn2nc(C(=O)O)c3ccccc3c2=O)c(C)n1Cc1ccccc1Cl [CBK297504],69.805
9,N#Cc1ccc(-c2cnc(NC(=O)C(F)(F)F)c(-c3ccc(C(=O)N4CCOCC4)cc3)n2)cc1 [CBK093819],101.239
10,COc1cc(CNc2nc(Br)cn3ccnc23)cc(OC)c1OC [CBK038060],101.937
11,Cc1ccc(OC2(C(=O)N3CCCC3c3nccs3)CCNCC2)cc1 (stereo not drawn) [CBK307539],61.4479
12,Cc1cc(C)c2c(CC(=O)NNC(=O)COc3ccccc3)coc2c1 [CBK269169],121.495
13,CN(C)CCNCc1ccc(-c2cccc(C(=O)O)c2)o1 [CBK287250],105.552
14,CC(C)n1ncc2c1NC(=O)CC2c1ccc2c(c1)n(C)c(=O)n2C (stereo not drawn) [CBK287926],41.5637
15,CN1CCCc2ccc(S(=O)(=O)Nc3nc4ncccn4n3)cc21 [CBK305226],103.294
16,O=C(Nc1ccc(OC(F)(F)F)cc1)c1nn(-c2ncccn2)c2ccccc12 [CBK048510],122.257
17,N[C@H]1CO[C@H]2[C@@H]1OC[C@@H]2n1cc(-c2ccccc2)nn1 [CBK289502],112.816
18,CC(C)N1CCCC[C@H]2CN(C(=O)C3OCCc4ccccc43)C[C@H]21 (stereo partly drawn) [CBK285511],91.4655
19,CCCS(=O)(=O)N1CCC2(CCCN(Cc3cccc(F)c3F)C2=O)C1 (stereo not drawn) [CBK306694],56.5821
20,O=C(Cc1c[nH]c2ccccc12)N1CCC2(CCCN(Cc3cc(=O)[nH]c(=O)[nH]3)C2)C1 (stereo not drawn) [CBK132049],77.2689

row,Compound,% of control remaining
1,Cc1n[nH]c(O)c1C(c1ccc(OC(=O)c2c(F)cccc2F)cc1)c1c(C)n[nH]c1O [CBK265136],131.121
2,COc1ccccc1-c1cc(C(=O)NCCCN2CCOCC2)c2ccccc2n1 [CBK267780],101.317
3,Cc1ccc(Nc2cncc(-c3ccc(O)cc3)n2)cc1Cl [CBK107802],74.9792
4,O=C(Oc1cccc2cnccc12)c1ccccc1 [CBK022889C],38.1732
5,CC(=O)N1CCc2c([nH]c3ccc(Br)cc23)C12CCN(CCCC#N)CC2 [CBK039724],59.851
6,OCCN(Cc1cccnc1)Cc1cccn1-c1ccccc1F [CBK283019],91.6503
7,O=C(Nc1cccc(C(F)(F)F)c1)c1cnsn1 [CBK018923],70.8133
8,COc1ccc(F)c(C2NC(=O)CCC2N)c1 (stereo not drawn) [CBK282905],85.5794
9,COc1ccc(OCCn2c(C(C)O)nc3ccccc32)cc1 (stereo not drawn) [CBK269905],86.1385
10,COc1ccc(-c2cc(C(=O)NCc3cccnc3)c3cc(Br)ccc3n2)cc1 [CBK293958],106.293
11,Cc1cc(C)n(C)c(=O)c1C(=O)NCCCc1ccc(Cl)cc1 [CBK281566],121.253
12,Cc1ncc(C(=O)NC2(c3ccccc3F)CCCC2)c(C)n1 [CBK283274],101.167
13,Cc1cc(C(=O)CSc2nnc(N3CCCC3)n2C2CC2)c(C)n1C [CBK306051],86.5467
14,CS(=O)(=O)c1ccc(-c2ccc(N)c3ccccc23)cc1 [CBK084326],83.4777
15,O=C(Nc1ccc(-c2ccc(NC(=O)c3ccncc3)cc2)cc1)c1ccncc1 [CBK262321],92.6875
16,CN(C(=O)Cn1cccc(C(=O)NCC(C)(C)c2ccc(F)cc2)c1=O)C1CCCCC1 [CBK286112],107.553
17,Cc1cccc(C)c1NC(=O)C(=O)NCCCN1CCOCC1 [CBK264850],121.301
18,Nc1nc(O)c2c(n1)NC1(CCC1)[C@@H]1C[C@@H](O)[C@@H](O)[C@H]21 [CBK303248],84.562
19,CC(C)Nc1cc(SCCN(C)C)ncn1 [CBK105616],96.6716
